Data from publication PMC11002309 (2024).

Legend:
[1] = molecular target: T1, PBRM1-BD4 WT (fourth bromodomain of polybromo-1, aa 496–637) (human, UniProt Q86U86-5 496-637); experiment: AlphaScreen, WT run alongside M586I
T1 chain: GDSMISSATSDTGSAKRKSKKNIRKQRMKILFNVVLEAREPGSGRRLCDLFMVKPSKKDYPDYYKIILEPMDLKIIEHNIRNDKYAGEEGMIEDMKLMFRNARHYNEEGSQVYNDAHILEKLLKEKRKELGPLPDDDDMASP

[2] = molecular target: T1, PBRM1-BD4 WT (fourth bromodomain of …); experiment: AlphaScreen, WT run alongside P556S
[3] = molecular target: T1, PBRM1-BD4 WT (fourth bromodomain of …); experiment: AlphaScreen, WT run alongside R576L

B1: biotinylated histone H3K14ac(1–20) peptide (peptide)
peptide: not shown
modifications: acetyl-lysine at K14; biotin on the added C-terminal lysine; C-terminal amide (CONH2)
For B1, the EC50 [1] was 62 nM, the EC50 [2] was 67 nM and the EC50 [3] was 94 nM.
